{
  "source": "PubChem BioAssay AID686971",
  "about": "(National Center for Advancing Translational Sciences (NCATS), 2013)",
  "note": "Screen size: about 360,000 compounds; about 7,500 (2.1%) were called active. The shares of active, inactive and inconclusive entries below differ from those in the screen. Calls follow the shape of the dose curve; as a rule, active = well fitted cell-killing curve with a large enough effect; inconclusive = small, poorly fitted or top-dose-only effect, or effect the other way, or another doubt; inactive = no such curve, though single readings can be large or run the other way. No potency is given beside an inconclusive call; the fits are too rough. Potency is read from the fitted curve at half-maximal effect; tags tell the direction and shape of the fitted curve.",
  "data": [
    {"assay": "qHTS for induction of synthetic lethality in tumor cells producing 2HG: qHTS for the HT-1080-IDH1KD cell line;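 as to activity, negative = toxicity: 0% = DMSO wells and -100% = cell-free medium wells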", "settings": "HT-1080 IDH1 knockdown viability, ATP luminescence, 48 h; activity, negative = toxicity: at 46.1 µM (top of the series) unless noted", "in_short": "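Assay cells: HT-1080 with IDH1 knockdown, 750 per well, RPMI/5% FBS. Exposure: 48 h at 37 °C following 2 h pre-incubation. Read: CellTiter-Glo luminescence; fitted concentration-response, curve class assigned.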", "values": [
      {"smiles": "Cc1ccc(O)c(NC(=O)c2cc(-c3ccccc3Cl)on2)c1", "Potency": "inconclusive [cytotoxic, single point]"},
      {"smiles": "CCOC(=O)Nc1ccc2c(c1)N(C(=O)N1CCN(C)CC1)c1ccccc1CC2", "Potency": "inconclusive [cytotoxic, single point]"},
      {"smiles": "Cc1cc2nc(SCCOC(=O)Nc3ccccc3)nc(C)c2cc1C", "Potency": "inactive"},
      {"smiles": "COc1ccccc1CCNC(=O)c1cc(-c2ccccn2)nc2ccccc12", "Potency": "inactive"},
      {"smiles": "CC(C)=CCc1cc([C@@H]2COc3c(ccc4c3C=CC(C)(C)O4)C2)c(O)cc1O", "Potency": "inconclusive [cytotoxic, single point]"},
      {"smiles": "CC(=O)N1CCN(C(=O)C(Cc2c[nH]c3ccccc23)NC(=O)c2ccccc2Cl)CC1", "note": "(configuration not stated)", "Potency": "inactive"},
      {"smiles": "Cc1cccc2cc3c(N)c(C(=O)N4CCOCC4)sc3nc12", "Potency": "inconclusive [cytotoxic, full curve]"},
      {"smiles": "c1ccc(Cc2nc3ccccc3s2)cc1", "Potency": "inactive"},
      {"smiles": "O=C(Nc1ncc(Cc2ccccc2Cl)s1)C1CCCO1", "note": "(configuration not stated)", "Potency": "inconclusive [cytotoxic, single point]"},
      {"smiles": "CCOC(=O)N1CCN(c2c(NCc3ccc(F)cc3)c(=O)c2=O)CC1", "Potency": "active: 5.17 µM"},
      {"smiles": "CCc1ccc(-c2nc(CS(=O)CC(=O)NCCCN3CCC(C)CC3)c(C)o2)cc1", "note": "(configuration not stated)", "Potency": "inconclusive [cytotoxic, single point]"},
      {"smiles": "COc1cc2c(C#N)c(N3CCOCC3)nc(N)c2c(N)n1", "Potency": "inconclusive [cytotoxic, partial curve]"},
      {"smiles": "O=C(Nc1ccc(Cl)c(S(=O)(=O)N2CCOCC2)c1)c1ccc(Cl)nc1", "Potency": "inactive"},
      {"smiles": "Cc1cccc(N=C2NC(=O)/C(=C/C=C/c3ccco3)S2)c1C", "Potency": "inconclusive [cytotoxic, single point]"},
      {"smiles": "CN(C)CCOc1ccc2c(c1)C(=O)C(=Cc1ncc([N+](=O)[O-])n1C)C2", "Potency": "active: 6.51 µM"},
      {"smiles": "CN(C)/C=C1/C=C(c2ccccc2)OC1=O", "Potency": "inconclusive [cytotoxic, single point]"},
      {"smiles": "CCCn1nc([N+](=O)[O-])c(C(C#N)c2nc3ccccc3s2)c(Cl)c1=O", "note": "(configuration not stated)", "Potency": "active: 1.12 µM"},
      {"smiles": "Cc1cc(-c2ccc(C(C)C)c(S(=O)(=O)N3CCC(C)CC3)c2)on1", "Potency": "inconclusive [cytotoxic, single point]"},
      {"smiles": "CCOc1ccc(C(=O)CC(C(=O)O)N2CCCCC2)cc1", "note": "(configuration not stated)", "Potency": "inconclusive [cytotoxic, single point]"},
      {"smiles": "Cc1ccc(-n2c(C)c(C)c3c(NCCCO)ncnc32)cc1", "Potency": "inconclusive [cytotoxic, partial curve]"},
      {"smiles": "COc1ccc(F)c(CN(C)CC2CCCN(CCc3ccc(F)cc3)C2)c1", "note": "(configuration not stated)", "Potency": "inconclusive [cytotoxic, single point]"},
      {"smiles": "O=C(Nc1nnc(C2CCCC2)s1)C1CCC1", "Potency": "inactive"},
      {"smiles": "CCOC(=O)n1c(=O)n(Cc2ccc(OC)cc2)c2ccccc21", "Potency": "inconclusive [cytotoxic, partial curve]"},
      {"smiles": "CCN1CCN(Cc2ccc(NC(=O)c3ccc(C)c(NC(=O)c4nccnc4N)c3)cc2C(F)(F)F)CC1", "Potency": "inconclusive [cytotoxic, single point]"},
      {"smiles": "O=C(CCCN1C(=O)/C(=C\\c2ccccc2)SC1=S)Nc1ccc(O)cc1", "Potency": "active: 14.6 µM"},
      {"smiles": "Oc1c(Br)cc(Br)c2cccnc12", "Potency": "inconclusive [cytotoxic, partial curve]"},
      {"smiles": "O=C(CN1CCN(S(=O)(=O)c2ccccc2)CC1)Nc1ccccc1C(=O)c1ccccc1", "Potency": "inconclusive [cytotoxic, single point]"},
      {"smiles": "Cc1cc(C)c(OCCCCCNCCO)c(C)c1", "Potency": "inconclusive [cytotoxic, partial curve]"},
      {"smiles": "Cc1cccc(NS(=O)(=O)c2ccc(C(=O)NCC3(N4CCCCC4)CCCCC3)cc2)c1C", "Potency": "inconclusive [cytotoxic, single point]"},
      {"smiles": "O=[N+]([O-])c1cccc(NC2=NCCC2)c1", "activity, negative = toxicity": "inconclusive: -7.4% [cytotoxic]"},
      {"smiles": "Cc1cc(C(=O)NCCN2CCN(c3cccc(Cl)c3)CC2)n(-c2ccccc2)n1", "Potency": "active: 16.4 µM"},
      {"smiles": "Cc1occc1-c1nnc(SCC(=O)Nc2ccc(F)cc2)n1Cc1ccccc1", "Potency": "inconclusive [cytotoxic, partial curve]"},
      {"smiles": "CCn1c(=N)n(CCOc2ccc(OC)cc2)c2ccccc21", "Potency": "inconclusive [cytotoxic, single point]"},
      {"smiles": "COC(=O)c1ccc(C)c(NS(=O)(=O)c2ccc3c(c2)OCCO3)c1", "Potency": "active: 0.708 µM"},
      {"smiles": "N#Cc1c(-c2ccccc2)nc(SCC(=O)N2c3ccccc3Sc3ccccc32)[nH]c1=O", "Potency": "inactive"},
      {"smiles": "Cc1ccc(C)c(N2CCN(C(=O)CC3Sc4ccccc4NC3=O)CC2)c1", "note": "(configuration not stated)", "Potency": "inconclusive [cytotoxic, single point]"},
      {"smiles": "CCCCN(C)CC(O)Cn1cc(/C=C/C(=O)c2ccc(C)cc2)c2ccccc21", "note": "(configuration not stated)", "Potency": "inconclusive [cytotoxic, single point]"},
      {"smiles": "O=C1N[C@@H](Cc2ccccc2)C(=O)N2[C@H]3Nc4ccccc4[C@@]3([C@]34C[C@H]5C(=O)N[C@@H](Cc6ccccc6)C(=O)N5[C@H]3Nc3ccccc34)C[C@@H]12", "Potency": "inactive"},
      {"smiles": "CC(C)c1ccc(NC(=O)COC(=O)C2CC3C=CC2C3)cc1", "note": "(configuration not stated)", "Potency": "inactive"},
      {"smiles": "CC(=O)Nc1ccc(S(=O)(=O)Nc2cccc(-c3csc(C)n3)c2)cc1", "activity, negative = toxicity": "inconclusive: -33.4% [cytotoxic]"},
      {"smiles": "CN(C)c1cccc(C(=O)Nc2nc3ccccc3[nH]2)c1", "activity, negative = toxicity": "inconclusive: -21.7% [cytotoxic]"},
      {"smiles": "CC(=O)OCCNc1cc(SCc2ccco2)c2nonc2c1[N+](=O)[O-]", "Potency": "inconclusive [cytotoxic, single point]"},
      {"smiles": "COc1ccc2nc(C)cc(SCC(=O)N/N=C/c3ccc(O)cc3O)c2c1", "Potency": "inconclusive [cytotoxic, full curve]"},
      {"smiles": "COC(=O)C1CCN(S(=O)(=O)c2ccc(OC)cc2)CC1", "Potency": "inactive"},
      {"smiles": "O=c1c2cn[nH]c2nc(SCc2ccccc2F)n1-c1ccc(Br)cc1", "Potency": "active: 18.4 µM"},
      {"smiles": "COc1ccccc1CNc1nc(NCc2ccccc2OC)c2sccc2n1", "Potency": "active: 23.1 µM"},
      {"smiles": "CN1CCN(c2ccc(S(=O)(=O)N3CCCCC3)cc2NC(=O)/C=C/c2ccc(OC(F)F)cc2)CC1", "Potency": "inconclusive [cytotoxic, single point]"},
      {"smiles": "Cc1cc(Oc2ccc(C(C)(C)C)cc2)nc(N2CCOCC2)n1", "Potency": "inconclusive [cytotoxic, single point]"},
      {"smiles": "CC(OC(=O)c1oc2ccccc2c1CSC1CCCCC1)C(=O)NC(N)=O", "note": "(configuration not stated)", "Potency": "inconclusive [cytotoxic, single point]"},
      {"smiles": "C=CCN(CC=C)C(=S)NC(=O)c1ccc(OC)c(Br)c1", "Potency": "active: 3.16 µM"},
      {"smiles": "Oc1c(C(Nc2nc3ccccc3s2)c2ccco2)ccc2cccnc12", "note": "(configuration not stated)", "Potency": "inconclusive [cytotoxic, full curve]"},
      {"smiles": "CCOC(=O)c1sc(NC(=O)CCCn2nc([N+](=O)[O-])cc2C)c(C(=O)OCC)c1C", "Potency": "inconclusive [cytotoxic, single point]"},
      {"smiles": "CCOc1ccc(C(=O)NC2CCN(C(=O)Nc3ccc(F)cc3)CC2)cc1", "Potency": "inactive"},
      {"smiles": "Cc1nn(Cc2ccccc2)c(C)c1/C=N/NC(=O)c1cccnc1", "Potency": "inconclusive [cytotoxic, partial curve]"},
      {"smiles": "CCN(CC)c1ccc(C(=O)OCc2cc(=O)oc3cc(O)ccc23)cc1", "Potency": "inconclusive [cytotoxic, partial curve]"},
      {"smiles": "O=C(Cn1cnnn1)NC1CCCN(Cc2ccccc2F)C1", "note": "(configuration not stated)", "Potency": "inactive"},
      {"smiles": "C=CCSC(=C(C#N)C#N)c1cc2c([nH]1)CCCC2", "Potency": "active: 16.4 µM"},
      {"smiles": "COc1ccccc1NC(=O)Cn1nnc(C(=O)NCCc2ccccc2)c1N", "Potency": "inconclusive [cytotoxic, single point]"},
      {"smiles": "CS(=O)(=O)Nc1cccc(NC(=O)c2cccc3c(-c4cccc(C(N)=O)c4)coc23)c1", "Potency": "inconclusive [cytotoxic, single point]"},
      {"smiles": "Cc1cc(Cl)nc(Cl)c1C(=O)NCc1ccc(Cl)cc1", "Potency": "inactive"},
      {"smiles": "Cc1cccc2c(=O)c(C(=O)NCCCN3CCOCC3)c[nH]c12", "Potency": "inactive"},
      {"smiles": "COCCSc1ccccc1C(=O)Nc1nncs1", "Potency": "inactive"},
      {"smiles": "C=C1CC(COc2ccc3c(C)c(Cl)c(=O)oc3c2)(c2ccccc2)OC1=O", "note": "(configuration not stated)", "Potency": "active: 6.51 µM"},
      {"smiles": "O=C1c2ccccc2NC(c2ccc(Cl)cc2Cl)N1O", "note": "(configuration not stated)", "Potency": "inconclusive [cytotoxic, partial curve]"},
      {"smiles": "Fc1ccc(-c2csc(Nc3ccccn3)n2)c(F)c1", "Potency": "inconclusive [cytotoxic, single point]"},
      {"smiles": "CCCCCCc1cc2cc(S(=O)(=O)c3ccc(F)c(Cl)c3)c(=O)oc2cc1O", "Potency": "inconclusive [cytotoxic, partial curve]"},
      {"smiles": "COc1cccc(C(=O)CSc2nnc(COc3cccc4cccnc34)o2)c1", "Potency": "inconclusive [cytotoxic, full curve]"},
      {"smiles": "CC(C)c1ccc(NC(=O)c2ccc3c(c2)C(=O)N(Cc2cccnc2)C3=O)cc1", "Potency": "inconclusive [cytotoxic, single point]"},
      {"smiles": "COCCNC(=O)CSc1c2c(nc3ccc(Cl)cc13)CCCC2", "Potency": "inactive"},
      {"smiles": "O=c1[nH]nc(Sc2ncnc3sccc23)n1CCc1ccccc1", "Potency": "inconclusive [cytotoxic, single point]"},
      {"smiles": "NC(=O)C1(Nc2ccc(-c3ccc(Cl)cc3)cc2)CCCC1", "Potency": "inactive"},
      {"smiles": "Nc1cccc2c1C(=O)N(C(=O)/C=C/c1ccc(F)cc1)C2=O", "Potency": "active: 18.4 µM"}
    ]}
  ]
}
